Laboratory results published in the supplement of paper PMC11417369.
This is one part of the list.

Test system: PF3D7_0420300 AP2 domain 1 (GST-tagged)
Test: gcPBM binding intensity (ln(normalized median fluorescence intensity)); higher = stronger DNA binding
Method in brief: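 Probes on an Agilent 4 × 180k array were primer-extended, double-stranded and 36 bp long, taken from intergenic genomic regions, with negative controls added. GST-tagged P. falciparum DNA-binding domains from E. coli, about 25 μg on average, were applied to the array for 1 h in 1× PBS containing 1% milk, 0.2 mg/ml BSA, 0.5% salmon testes DNA and 0.03% Triton X-100. Binding intensity, obtained after Alexa488 anti-GST antibody detection and a 488 nm scan, is the highest Masliner-normalised natural-log median intensity across replicate spots of either probe orientation.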

Sequence | gcPBM binding intensity (ln)
AATAAACAAATAAATAAACACACAATATATGTATAT [CACACA_site9268] | 9.8
TTTCTTTAACAAGTTAAACACACATACATATATACA [CACACA_site8810] | 9.27
ATCATTTCTATATAAGCACACACGTGGAATTTTTTT [CACACA_site2786] | 9.57
CACATACAGATATATACACACAAATATAAATACACA [CACACA_site6512] | 9.98
AATAAATATAAAAATGCACACACACTAATAAAAAAA [CACACA_site8201] | 10.2
TTACTTATATGCATAGTGCAAATTTGGTAAATATCT | 9.15
AAAATAAATATATTATCCACGTTGTATATATATATA [XGTACX_negctrl_site136] | 9.34
CAATTTATTATATATGTGCACATATAATTTTACAAA | 8.94
TAATTATTTTTATTGTTGCACTAGTAAAATTTTAAG [GTGCAC_site9946] | 9.11
TACATTTTAATATAAGCATGCCTTTAGTTTTTTTCT [TGCATGCA_site829] | 9.34
AATACAAATATATATGCACACACATATACATACATA [CACACA_site8677] | 9.83
AATATGTAAATATGGGTGCTTTAAAATATATTCATT [GTGCAC_site9583] | 9.27
TTCCAATGATAAAATTGTACTTGAAGAAAATTTTTT [XGTACX_site4607] | 8.77
AGCGTATAACATATGACACACACACCGACATACACA [CACACA_site8532] | 9.93
TACGTATCATAATTTTATTTTATATATATTCACAAA [XGTACX_negctrl_site144] | 9.23
ATATATATATGGAAGTGTACTTATATAGCATACTAG [XGTACX_site5130] | 9.34
AAATTTTTATAATTATCACACATTGAATTGTGGTCT [CACACA_site4343] | 9.22
AACAATTATTGTAATGCATGCACTGAATATAGAAAG [TGCATGCA_site889] | 9.37
ATTCACAAATATATGGTGCATAATATATATATATAT [GTGCAC_site9674] | 9.19
ATATTTTCCCTTTATAGGAGCACAAAAATTAAATGT [CACACA_negctrl_site1114] | 9.06
CAGATAAGATTTTGTGGTACTATTTATTAAATTAGA [XGTACX_site2644] | 9.03
TTATATAACACGGGGAGGACACAAGAAATAAAGAGC [XGTACX_site2148] | 9.96
GCTAATAATAAAAGCATAATGAACAAACACCCAGTA [CACACA_negctrl_site806] | 9.73
TTTTTCTGTTTTTATAGCCTTCTCATAATACATAAA [TGCATGCA_negctrl_site355] | 9.22
TATAATAAATCGAACTGTACATATATATATATATAT [XGTACX_site7097] | 9.11
